# The supplement of paper PMC3334620
# Over roughly 33,000 sequences, “E-score (-0.5 to 0.5)” has its median near -0.035; the highest 2% begin near 0.34. This is one part of the list.
# Molecular target: T1, Mot3 (UniProt P54785)
# T1 sequence: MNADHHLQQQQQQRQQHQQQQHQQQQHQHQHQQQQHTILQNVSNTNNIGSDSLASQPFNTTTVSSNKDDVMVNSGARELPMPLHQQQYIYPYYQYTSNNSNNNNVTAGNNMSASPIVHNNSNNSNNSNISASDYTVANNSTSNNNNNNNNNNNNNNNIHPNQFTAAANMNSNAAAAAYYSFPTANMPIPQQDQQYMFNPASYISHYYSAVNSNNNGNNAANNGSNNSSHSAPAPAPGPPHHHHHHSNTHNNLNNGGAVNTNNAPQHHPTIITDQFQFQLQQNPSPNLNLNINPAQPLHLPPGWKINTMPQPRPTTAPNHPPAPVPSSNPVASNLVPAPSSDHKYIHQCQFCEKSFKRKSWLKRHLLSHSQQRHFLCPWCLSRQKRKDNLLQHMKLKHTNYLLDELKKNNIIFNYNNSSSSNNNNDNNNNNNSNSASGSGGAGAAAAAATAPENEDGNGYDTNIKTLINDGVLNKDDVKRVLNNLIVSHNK
# Assay: PBM E-score (8-mer binding enrichment) (E-score (-0.5 to 0.5)); higher = stronger / more preferred TF binding; most listed sequences are background and not binding sites
# Details: protein concentration: 200 nM; construct: GST-full length
# Procedure, shortened: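 Using PURExpress in vitro transcription/translation, GST-tagged yeast transcription factors were made in full-length or DNA-binding-domain form. These were applied at about 100-200 nM to double-stranded universal all-10-mer Agilent arrays, and bound protein was detected with fluorescent anti-GST. Scans were normalised with masliner before the Universal PBM Analysis Suite assigned E-scores to ungapped eight-base words pooled with their reverse complements.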
row,Sequence,PBM E-score
1,AAGTGCGA,-0.183
2,GCGTTTAA,0.291
3,CCGCCTTC,-0.226
4,CCCGAAGG,-0.0155
5,TGCTAGCA,0.0937
6,GCACACTA,0.0688
7,CGCTTCTA,-0.0173
8,AGAACGCG,0.0275
9,CCAGGAAA,0.324
10,CGCGCGAA,0.0179
11,CCTTCCTA,-0.00801
12,ACCATCTG,-0.338
13,GGACGGAA,-0.268
14,ACAAGATA,0.269
15,CGCCAACG,-0.175
16,AGCCCCCG,-0.384
17,GGTTGCCA,-0.198
18,GCAGCGAC,-0.0367
19,CCAGTAAG,-0.00718
20,GCGCAGCA,-0.264
21,GCTCCTAC,-0.0277
22,ATGACTAC,0.0213
23,CTAAGCGA,-0.338
24,GGTACGGA,0.0472
25,ACTGCGAA,-0.201

row,Sequence,PBM E-score
1,AGGGTAGA,-0.302
2,AGCTAGGC,0.0872
3,ACGTCCCA,0.0421
4,CATGTCGC,0.175
5,AGCGTAAG,0.0361
6,CAGCCTAG,-0.159
7,AGGACCAG,-0.26
8,ATCACGAG,-0.25
9,AAGCAAAT,0.19
10,ACGCTTTG,-0.111
11,GCTATCCC,-0.238
12,CTGGTAAA,0.0855
13,ATCGTTGC,0.154
14,ATTGAACG,0.0874
15,CCCTTCTA,-0.152
16,ACTGGCGC,0.057
17,ACTCTGAT,-0.0437
18,CGCGGACG,-0.204
19,GGCACAGA,0.308
20,AGCCGCCT,-0.374
21,TAACGTCA,0.0634
22,CTGGGGCA,-0.31
23,AGAACCCC,-0.104
24,GTAAACGA,0.218
25,GTGACTGA,0.257

row,Sequence,PBM E-score
1,AACCGGCC,-0.301
2,GCGAGAAA,-0.0294
3,CCAATGCA,-0.119
4,AGAGAAAC,0.151
5,AAGGCGCA,0.336
6,AGGTGAAT,-0.0328
7,ACATCCAG,0.142
8,CACGACGG,0.0919
9,CCGAAAGG,-0.151
10,CGATAGCC,-0.0599
11,CCACCTCG,-0.213
12,ACTGCCTA,0.199
13,AAAAGTAA,0.176
14,CTCGTATA,-0.027
15,CCTGTTCG,0.202
16,TGTATGAA,0.143
17,GGGATTCA,-0.0918
18,AACTTCAT,-0.0537
19,GAGGGGCA,-0.0867
20,GAGTAACC,-0.0468
21,GGAAGGTA,0.251
22,CAATAGGC,0.293
23,AGTGCTAT,-0.267
24,CAATGAGG,-0.197
25,GGGGGGAA,-0.375

row,Sequence,PBM E-score
1,GAAAGATC,-0.149
2,CTGTATGC,-0.087
3,GGCCGCTA,-0.284
4,ACAACCCG,-0.034
5,AAAACGCA,0.0022
6,ACAGAATG,-0.0363
7,ACATTTGC,0.232
8,AGCAAGTA,0.139
9,ACCTGATG,-0.0734
10,AATGGACC,-0.0323
11,ATAGTATC,-0.0486
12,AGGGTTAA,0.108
13,CTGAGGAA,-0.118
14,GGTCTTGA,0.0193
15,CTGCTATC,-0.114
16,AAAGCCAG,0.159
17,AATTCGGG,-0.189
18,ACACAAGC,0.257
19,TGACTTAA,0.0679
20,CATCCTAA,-0.0163
21,AAATTCAA,-0.058
22,CGAATCCC,-0.156
23,ACACTACT,0.1
24,CAGCCAGG,-0.121
25,ACGCCATA,0.149

row,Sequence,PBM E-score
1,CCTCTAGC,-0.0539
2,CCGCATGA,-0.167
3,CCCCGTCC,-0.281
4,AAGCCGCG,-0.049
5,GAGAATAC,0.0636
6,CATGACAA,0.107
7,TCTTGAAA,-0.0342
8,CTAGGCCA,-0.208
9,AACACGTG,0.302
10,GGTCTTAA,-0.141
11,ACTGCCAG,-0.224
12,CTTTGTAC,0.193
13,ATACCCAT,0.142
14,CAGCTGCG,-0.158
15,CATGCAAA,0.228
16,CATCTCAG,-0.0394
17,ACGACACC,0.011
18,AAGGGCGG,-0.156
19,CGTACACG,0.226
20,AGCACTCA,-0.226
21,CATCATCA,-0.0891
22,GACATTTA,0.106
23,ACGCGGAA,0.0232
24,AACCACCG,-0.266
25,CTATCGAA,-0.0709

row,Sequence,PBM E-score
1,GTACTTCA,0.198
2,ACCGTAGA,-0.0608
3,AGATGCGG,-0.116
4,GGCCAAAA,-0.129
5,CCAACCTA,-0.218
6,CATAACAC,0.316
7,CACCATAG,-0.145
8,GATAACCC,-0.0827
9,ATTGTCCC,0.0214
10,CGGTCTGC,-0.24
11,AATTCCAT,0.103
12,CGACGAAA,0.0822
13,GACTTGGA,-0.174
14,AACGCAGG,0.21
15,CCGGTATC,-0.235
16,CGTTGGAC,-0.128
17,AAAGAAGA,0.107
18,ACGGTGGC,-0.302
19,ACGATGAA,0.0724
20,CAAATGGC,-0.0819
21,ACCCGGTG,-0.292
22,GATCTTAC,0.0228
23,GATATTAA,-0.0488
24,AGCGAGCG,0.00409
25,CTTCAAGA,0.0893

row,Sequence,PBM E-score
1,GACACGTC,0.145
2,AGGCGGAC,-0.319
3,AGTTACGA,0.138
4,CGACATGC,0.279
5,AGCCCTCC,-0.29
6,CGAGGCGA,-0.211
7,AATACACG,0.394
8,AACTTTAG,0.081
9,AAGCTCAA,0.00274
10,CTCTCTTC,-0.152
11,GCTGAAGC,-0.272
12,AGACTGAC,-0.135
13,CTTGCCTA,0.488
14,AGTAATTG,0.182
15,GTTAAGGA,0.248
16,ACTGGGCT,-0.206
17,ATTGCCTA,0.482
18,CGCGTCCC,-0.205
19,CACCGGCA,-0.145
20,CTGCGTCA,-0.1
21,AGTTCGTC,-0.0522
22,ATGTATAG,0.231
